“And” between values parts separate entries of the source, which are not always exact repeats. Identical values can stand only once.
Target: the molecule itself
Test: electrophoresis in non-reducing conditions with western blot; nuclear Cx43 from purified and crude nuclei, migration profile in non-reducing conditions

B1: Connexin43 (Cx43) of rat origin, stably expressed in HEK293 cells (HEK293^Cx43+) (natural protein)
chain: not shown
notes: Connexin43 (Cx43), rat, full-length; Immunoprecipitated with goat anti-Cx43 AB0016 (tool); also called nuclear Cx43; full-length Cx43; source: in purified nuclear or whole-cell extracts
- stoichiometry N: 2 and 6

From paper PMC10645070, “Cx43 can form functional channels at the nuclear envelope and modulate gene expression in cardiac cells” (Open Biology, 2023)
